# Laboratory results as given in the supplement of paper PMC11417369.
# ± gives the standard deviation of the averaged measurements. The list shows a part of the results.
# Test system: PfAP2-LT AP2 domain (GST-tagged)
# Assay: gcPBM binding intensity (ln(normalized median fluorescence intensity)); higher = stronger DNA binding
# Procedure, shortened: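 Binding intensity values are the highest Masliner-normalised natural-log median intensity among replicate spots of either probe orientation. The binding step lasted 1 h in 1× PBS with 1% milk, 0.2 mg/ml BSA, 0.5% salmon testes DNA and 0.03% Triton X-100, using GST-tagged P. falciparum DNA-binding domains expressed in E. coli on an Agilent 4 × 180k array of primer-extended double-stranded 36-bp intergenic genomic probes plus negative controls. Alexa488 anti-GST antibody and a 488 nm scan detected bound protein.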
row,Sequence,gcPBM binding intensity (ln)
1,ATTAGGATATATTAAAGTACTAATATAATACATTTT [XGTACX_site7386],8.61 ± 0.45
2,TATTCATTTATAAGCTGTACACATTAATTTGAGCTA [XGTACX_site3616],8.73 ± 0.36
3,ATATAGTATTAATTTGCATGTCATGTATTAGGTCGA [TGCATGCA_site540],8.78 ± 0.4
4,TGTAAGTTGATATAATGTACATGTTTGATTTTTTTT [XGTACX_site7687],8.71 ± 0.47
5,TTTTATATTTTTTGTGGTACATTTAGAGAACCAAAA [XGTACX_site1695],8.12 ± 0.4
6,TTTATAAACAAATGAACACACAAACATATATATATA [CACACA_site5713],9.33 ± 0.24
7,CTATTATAATATTTTACACACCATGTAAGATATATA [CACACA_site7492],8.74 ± 0.43
8,TTTATTTTATCATTTGCACACGCACCCAGACATAAA [CACACA_site4347],9.19 ± 0.35
9,TTTTTTCATTAGAAAACATGCAAATGTTTTTCACTT [TGCATGCA_site127],8.48 ± 0.54
10,TAACTAAGGAATAATACACACAGAAATATAGATTTA [CACACA_site6293],9.04 ± 0.43
11,TCTATTTTCTTATGAATGCACTAATTTATAAAACGT,8.54 ± 0.49
12,CAACAAAAATTATTTACACACAAAAGGCAAGGAAAT [CACACA_site1971],9.27 ± 0.35
13,TAGTTATTTATATACACACACATACAGACAAATAAA [CACACA_site7577],9.43 ± 0.29
14,TCTTAGATTATTTATTGTACTTATGCTTAAAAAATT [XGTACX_site3639],8.37 ± 0.46
15,GTCCAATAAGGAAGAGTGCAAAAATTAAATAATATA [GTGCAC_site9751],8.88 ± 0.58
16,CATGTAATATTAAACACACACTCATATAACACAATA [CACACA_site65],9.38 ± 0.21
17,ATATATATTTATATATATATATATATATATATGTAT [GTGCAC_negctrl_site220],9.38 ± 0.15
18,AAAGAAAAAAAAAACACACACACACGCATTCAATAT [CACACA_site6169],10.1 ± 0.13
19,GAAAAAAAAGAAAAAACACACATATGATATATTTAT [CACACA_site1524],8.78 ± 0.48
20,ATATTTTCTTTTTAAAGTACATATTTGATTACAATA [XGTACX_site8414],8.49 ± 0.45
21,ATATATATATATATATGTACATATTTTTAATTATAA [XGTACX_site7444],9.33 ± 0.042
22,TAAAAAACAAAACAGGTGCTATATAATTTTCATTTT,8.57 ± 0.48
23,TCTATATATAAATATAAATATATATATATAATGTTA [TGCATGCA_negctrl_site92],8.37 ± 0.48

row,Sequence,gcPBM binding intensity (ln)
1,ATAGAATAATATTGTAGTACTAAAAATATTCATTTT [XGTACX_site6447],8.64 ± 0.45
2,ATTATAAATTAAAATACACACATATATACATAATAT [CACACA_site7337],8.92 ± 0.4
3,AAGTATATACATATATGTACACATTGTCAGATAGAA [XGTACX_site1236],8.97 ± 0.39
4,TCTTTTTGTTCGTGTACACACATGAAATTTATAAAA [CACACA_site1619],8.81 ± 0.35
5,TTGTTTCTTAAATTATTTATTTTATATTAAAAAAAA [XGTACX_negctrl_site224],7.96 ± 0.42
6,AAGAAAATGAAAAAGTAAAAACATATATTAAATATA [TGCATGCA_negctrl_site123],8.61 ± 0.51
7,TCGTAGTTACTATGGCAAGAAAATAAACGGTCTTGT [GTGCAC_negctrl_site684],8.91 ± 0.42
8,ATTCGTAGTTTTATGAATTAATATAATAAAAATTAA [XGTACX_negctrl_site181],8.34 ± 0.36
9,TAATAATATATATGAAGTACAATAACTTTTTGTTTT [XGTACX_site292],8.52 ± 0.49
10,TTTATATGTATTAAGTGTACACATATAATCTATCTT [XGTACX_site4922],8.86 ± 0.52
11,GTCAAATTTTTGTGCACACATATATAGTTATTATTA [CACACA_site2241],9.33 ± 0.54
12,TTTCTTTTCTCAGAAATTATTCAAATGAAAAAAAAT [TGCATGCA_negctrl_site44],7.99 ± 0.44
13,AAAATACACGCATACACACACACACCCACCCATATA [CACACA_site639],10.4 ± 0.14
14,TTACATATGGTTAGTAGTACATATATAAATGTAAAT [XGTACX_site7206],8.89 ± 0.64
15,AAAAAAAAAAAAAAAACACACACATACACCCAAAAA [CACACA_site7910],9.78 ± 0.23
16,TTTATAAAAATATACACACATACAAATATGCATATA [CACACA_site712],8.85 ± 0.32
17,GAAAAAAGGAAATAAAGAAAAAAAAAAATGAAATAT [XGTACX_negctrl_site318],8.64 ± 0.54
18,GTCATAAAAACATATACACACTTGAAATATAAAAAT [CACACA_site5315],9.12 ± 0.4
19,AAACATGATTATTATAGTACAATTATAATTATTATA [XGTACX_site2590],8.54 ± 0.4
20,GTATACACATATATATGTACTTAATTATTTTATGTC [XGTACX_site6707],9.01 ± 0.31
21,CAAAGGGAAATTAACACACACATATATATATATATA [CACACA_site2453],10.3 ± 0.2
22,CTGTTTAAAATATAAACACACATTGTTTGCTTTAGA [CACACA_site1301],8.71 ± 0.4
